For 3 molecules, binding results are on record in paper PMC6336347.

No constants are given. Whether binding was seen depends on the method and setting. Some binding calls cover weakened binding; strength is not graded here.

Assay in all cases: two-hybrid; Matchmaker Gold Yeast Two-Hybrid System (Clontech), AH109 used in place of Y2Hgold, mated with Y187; pGBKT7 bait and pGADT7 prey vectors; six twofold dilutions of equal starting amounts plated on selection plates
The target in one experiment is T1, MEI-P22 (Drosophila) (UniProt Q9VS36).
T1 sequence: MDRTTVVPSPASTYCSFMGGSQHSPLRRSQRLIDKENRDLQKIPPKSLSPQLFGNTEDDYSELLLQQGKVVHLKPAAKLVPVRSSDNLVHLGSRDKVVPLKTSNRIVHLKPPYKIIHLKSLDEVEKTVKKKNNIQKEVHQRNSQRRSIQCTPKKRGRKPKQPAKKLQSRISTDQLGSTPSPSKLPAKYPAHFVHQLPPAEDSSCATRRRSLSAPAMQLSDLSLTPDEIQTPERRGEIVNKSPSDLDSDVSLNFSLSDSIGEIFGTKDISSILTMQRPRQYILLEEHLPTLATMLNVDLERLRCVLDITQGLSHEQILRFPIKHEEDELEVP

In experiment [1] the target is T2, Narya (CG12200) (Drosophila melanogaster) (UniProt Q9VWI4).
T2 sequence: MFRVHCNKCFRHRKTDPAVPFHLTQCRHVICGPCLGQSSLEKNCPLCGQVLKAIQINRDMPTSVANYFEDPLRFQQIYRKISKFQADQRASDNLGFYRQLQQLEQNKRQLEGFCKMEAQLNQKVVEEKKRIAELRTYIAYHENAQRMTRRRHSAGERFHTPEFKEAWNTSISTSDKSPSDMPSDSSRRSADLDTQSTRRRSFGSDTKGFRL

For experiment [2], the target named is T3, Nenya (CG31053) (Drosophila melanogaster) (UniProt Q8IMM9).
T3 sequence: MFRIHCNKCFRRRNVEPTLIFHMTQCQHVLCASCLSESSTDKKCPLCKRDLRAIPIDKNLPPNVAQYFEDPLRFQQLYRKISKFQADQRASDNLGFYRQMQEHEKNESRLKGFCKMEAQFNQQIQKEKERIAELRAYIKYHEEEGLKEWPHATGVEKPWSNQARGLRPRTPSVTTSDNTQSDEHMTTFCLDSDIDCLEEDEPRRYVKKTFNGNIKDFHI

Experiment [3] has as its target T4, Vilya (Drosophila melanogaster) (UniProt O76908).
T4 sequence: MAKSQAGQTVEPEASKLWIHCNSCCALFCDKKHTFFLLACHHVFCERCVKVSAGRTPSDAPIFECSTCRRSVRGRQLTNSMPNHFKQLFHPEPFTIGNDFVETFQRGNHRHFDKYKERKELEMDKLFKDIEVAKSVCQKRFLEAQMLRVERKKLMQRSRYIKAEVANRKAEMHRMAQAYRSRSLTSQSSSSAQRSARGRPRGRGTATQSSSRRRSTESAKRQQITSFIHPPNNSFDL

B1: Narya (CG12200) (protein, UniProt Q9VWI4 1-211)
chain: T2 sequence
For the molecule B1, the binding result is recorded as “no binding” with MEI-P22 (Drosophila), “binds” in experiment [1], “binds” in experiment [2] and “binds” in experiment [3].

B2: Vilya (protein, UniProt O76908 1-237)
chain: T4 sequence
As to B2, the binding result in experiment [1], in experiment [2] and in experiment [3] was “binds” each time.

B3: Nenya (CG31053) (protein, UniProt Q8IMM9 1-219)
chain: T3 sequence
As for B3, the binding entry is given as “no binding” in the experiment with MEI-P22 (Drosophila), “binds” in experiment [1], “binds” in experiment [2] and “binds” in experiment [3].
